These results are taken from PMC8768627.

Protein sequences, listed by entry. Tags and fused reporters are not part of them. Lines headed by an entry give the natural chain unless they say otherwise; changes in a name come on top. Chains listed by the source or under a name are the forms on record and can include a tag or linker.
UniProt P39687: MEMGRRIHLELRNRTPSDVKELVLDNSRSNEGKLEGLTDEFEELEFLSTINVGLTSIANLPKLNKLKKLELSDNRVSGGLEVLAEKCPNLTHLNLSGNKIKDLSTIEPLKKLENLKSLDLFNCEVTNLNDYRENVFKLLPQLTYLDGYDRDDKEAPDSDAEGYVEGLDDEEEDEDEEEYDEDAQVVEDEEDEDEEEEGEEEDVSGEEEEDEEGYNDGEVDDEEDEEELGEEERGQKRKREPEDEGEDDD
ANP32A-NLSm-Flag (nuclear localization signal KRKR mutated to AAAA) (P39687, form named): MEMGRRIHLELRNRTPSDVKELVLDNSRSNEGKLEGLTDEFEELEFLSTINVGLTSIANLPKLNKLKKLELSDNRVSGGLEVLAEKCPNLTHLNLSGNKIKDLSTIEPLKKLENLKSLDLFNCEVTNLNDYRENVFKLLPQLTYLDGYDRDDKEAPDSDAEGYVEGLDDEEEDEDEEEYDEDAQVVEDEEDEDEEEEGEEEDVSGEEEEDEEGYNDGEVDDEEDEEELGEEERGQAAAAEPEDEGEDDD
UniProt Q92688: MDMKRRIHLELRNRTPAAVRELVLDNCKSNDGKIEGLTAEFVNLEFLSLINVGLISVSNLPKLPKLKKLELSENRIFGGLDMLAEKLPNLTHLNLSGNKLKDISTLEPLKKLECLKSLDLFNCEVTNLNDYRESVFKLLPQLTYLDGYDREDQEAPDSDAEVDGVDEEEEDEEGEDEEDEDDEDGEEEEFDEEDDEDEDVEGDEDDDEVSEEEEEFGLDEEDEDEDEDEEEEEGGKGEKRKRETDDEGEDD
ANP32B-NLSm-Flag (nuclear localization signal KRKR mutated to AAAA) (Q92688, form named): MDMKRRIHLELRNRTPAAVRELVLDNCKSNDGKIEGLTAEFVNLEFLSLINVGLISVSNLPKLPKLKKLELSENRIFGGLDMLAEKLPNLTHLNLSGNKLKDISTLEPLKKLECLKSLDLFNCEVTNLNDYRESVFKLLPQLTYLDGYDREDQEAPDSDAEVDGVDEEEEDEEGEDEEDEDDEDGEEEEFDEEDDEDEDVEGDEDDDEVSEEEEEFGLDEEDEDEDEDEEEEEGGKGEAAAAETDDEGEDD

What all share (assay): co-IP
Test [1] addresses HA-tagged KPNA6 (human (by the printed RefSeq entry NP_036448.1)) (UniProt O60684).
Test [2] concerns the target ANP32A-NLSm-Flag (nuclear localization signal KRKR mutated to AAAA) (human) (UniProt P39687).
The target of test [3] is ANP32B-NLSm-Flag (nuclear localization signal KRKR mutated to AAAA) (human) (UniProt Q92688).
Test [4] deals with Flag-tagged human ANP32A (human) (UniProt P39687).
The target of test [5] is Flag-tagged human ANP32B (human) (UniProt Q92688).

No constants are given. Whether binding was seen depends on the method and setting. Binding seen in cells or lysates may run through a third protein. Some binding calls cover weakened binding; strength is not graded here.

As to “Flag-tagged human ANP32A (from UniProt P39687 1-249)”, the binding entry in test [1] is listed as “binds”.
Still for that read-out and setting: the value for “Flag-tagged human ANP32B (from UniProt Q92688 1-251)” was “binds”.
Take “HA-tagged KPNA6 (from UniProt O60684 1-536)”: the binding result in test [2] is listed as “no binding”; in test [3] it was “no binding”; in test [4] it was “binds”; in test [5] it was “binds”.
